# Measured values as given in the supplement of paper PMC10037445.
# Over roughly 2,900 compounds, “NF-kB SEAP reporter activity, fold change vs agonist alone” has its median near 0.99; the highest 2% begin near 2.6. This is one part of the list.
# Experiments:
# RAW-Dual [1] = assay: NF-kB SEAP reporter activity, fold change vs agonist alone; cytotoxicity flag (confluency mask): not cytotoxic; higher = enhanced NF-kB activity
# Outline: (§1)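 RAW-Dual macrophages were seeded in DMEM at 50,000 cells/well in 384-well plates, given 50 nL of library stock by pin tool, and given a PRR agonist 1 h later. Plates were held at 37 °C, 5% CO2 for 20 hours, after which supernatant was read for IRF by QuantiLuc luminescence and for NF-κB by QuantiBlue absorbance at 620 nm. Reporter activity is expressed as fold change over wells that received agonist alone. A well was called cytotoxic when IncuCyte confluency fell below 70% of agonist controls in both mask sets.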
# RAW-Dual [2] = assay: NF-kB SEAP reporter activity, fold change vs agonist alone; higher = enhanced NF-kB activity; details: cytotoxicity flag (confluency mask): not cytotoxic
# Outline: as §1
# [3] = agonist: ODN 1826 (TLR9) 0.5 ug/mL
# [4] = agonist: Pam2CSK4 (TLR2/6) 0.1 ug/mL
# [5] = agonist: Pam3CSK4 (TLR2/1) 0.1 ug/mL
# [6] = library stock concentration (final ~1000-fold dilution): 10 mM, agonist: Imiquimod (TLR7) […]
# [7] = library stock concentration (final ~1000-fold dilution): 10 mM, agonist: MPLA (TLR4) […]
structure (smiles),measurement,setting,value
CC(C)(C(=O)O)c1ccc(C(O)CCCN2CCC(C(O)(c3ccccc3)c3ccccc3)CC2)cc1.Cl (configuration not stated) (library stock concentration (final ~1000-fold dilution): 10 mM),NF-kB SEAP reporter activity,RAW-Dual [1]; agonist: LPS (TLR4) 0.1 ug/mL,0.919
same,NF-kB SEAP reporter activity,RAW-Dual [1]; [3],1.05
same,NF-kB SEAP reporter activity,RAW-Dual [1]; [4],1.07
same,NF-kB SEAP reporter activity,RAW-Dual [1]; [5],1.12
CC(C)(C(=O)O)c1ccc(C(O)CCCN2CCC(C(O)(c3ccccc3)c3ccccc3)CC2)cc1.Cl (configuration not stated),NF-kB SEAP reporter activity,RAW-Dual [2]; [6],1.09
same,NF-kB SEAP reporter activity,RAW-Dual [2]; [7],1
O=C(C=Cn1cnc(-c2cc(C(F)(F)F)cc(C(F)(F)F)c2)n1)NNc1ccccn1 (library stock concentration (final ~1000-fold dilution): 10 mM),NF-kB SEAP reporter activity,RAW-Dual [1]; agonist: LPS (TLR4) 0.1 ug/mL,0.246
same,NF-kB SEAP reporter activity,RAW-Dual [1]; [3],0.652
same,NF-kB SEAP reporter activity,RAW-Dual [1]; [4],0.295
same,NF-kB SEAP reporter activity,RAW-Dual [1]; [5],0.214
O=C(C=Cn1cnc(-c2cc(C(F)(F)F)cc(C(F)(F)F)c2)n1)NNc1ccccn1,NF-kB SEAP reporter activity,RAW-Dual [2]; [6],1.25
same,NF-kB SEAP reporter activity,RAW-Dual [2]; [7],1.12
O=C(Nc1ccccc1Br)NC1CCN(c2ccc(C(F)(F)F)cn2)C1 (configuration not stated) (library stock concentration (final ~1000-fold dilution): 10 mM),NF-kB SEAP reporter activity,RAW-Dual [1]; agonist: LPS (TLR4) 0.1 ug/mL,1.02
same,NF-kB SEAP reporter activity,RAW-Dual [1]; [3],0.991
same,NF-kB SEAP reporter activity,RAW-Dual [1]; [4],0.986
same,NF-kB SEAP reporter activity,RAW-Dual [1]; [5],0.645
O=C(Nc1ccccc1Br)NC1CCN(c2ccc(C(F)(F)F)cn2)C1 (configuration not stated),NF-kB SEAP reporter activity,RAW-Dual [2]; [6],0.511
same,NF-kB SEAP reporter activity,RAW-Dual [2]; [7],0.601
CC(=O)Cc1cc(=O)c2c(C)cc(O)c(C3OC(CO)C(O)C(O)C3O)c2o1 (configuration not stated) (library stock concentration (final ~1000-fold dilution): 10 mM),NF-kB SEAP reporter activity,RAW-Dual [1]; agonist: LPS (TLR4) 0.1 ug/mL,1.21
same,NF-kB SEAP reporter activity,RAW-Dual [1]; [3],1.01
same,NF-kB SEAP reporter activity,RAW-Dual [1]; [4],1.04
same,NF-kB SEAP reporter activity,RAW-Dual [1]; [5],1.22
CC(=O)Cc1cc(=O)c2c(C)cc(O)c(C3OC(CO)C(O)C(O)C3O)c2o1 (configuration not stated),NF-kB SEAP reporter activity,RAW-Dual [2]; [6],0.982
same,NF-kB SEAP reporter activity,RAW-Dual [2]; [7],1.02
COc1cc2ncnc(Sc3nnc(C)s3)c2cc1OC (library stock concentration (final ~1000-fold dilution): 10 mM),NF-kB SEAP reporter activity,RAW-Dual [1]; agonist: LPS (TLR4) 0.1 ug/mL,0.223
same,NF-kB SEAP reporter activity,RAW-Dual [1]; [3],0.567
same,NF-kB SEAP reporter activity,RAW-Dual [1]; [4],0.0738
same,NF-kB SEAP reporter activity,RAW-Dual [1]; [5],0.164
COc1cc2ncnc(Sc3nnc(C)s3)c2cc1OC,NF-kB SEAP reporter activity,RAW-Dual [2]; [6],1.29
same,NF-kB SEAP reporter activity,RAW-Dual [2]; [7],0.984
CC(=O)Nc1cccc(-n2c(=O)n(C3CC3)c(=O)c3c(Nc4ccc(I)cc4F)n(C)c(=O)c(C)c32)c1,NF-kB SEAP reporter activity,RAW-Dual [2]; [6],0.2
same,NF-kB SEAP reporter activity,RAW-Dual [2]; [7],0.211
CC(=O)Nc1cccc(-n2c(=O)n(C3CC3)c(=O)c3c(Nc4ccc(I)cc4F)n(C)c(=O)c(C)c32)c1 (library stock concentration (final ~1000-fold dilution): 10 mM),NF-kB SEAP reporter activity,RAW-Dual [1]; agonist: LPS (TLR4) 0.1 ug/mL,0.191
same,NF-kB SEAP reporter activity,RAW-Dual [1]; [3],0.288
same,NF-kB SEAP reporter activity,RAW-Dual [1]; [4],0.0794
same,NF-kB SEAP reporter activity,RAW-Dual [1]; [5],0.142
Cc1nc[nH]c1CN1CCc2c(c3ccccc3n2C)C1=O.Cl,NF-kB SEAP reporter activity,"RAW-Dual [2]; library stock concentration (final ~1000-fold dilution): 2 mM water, agonist: MPLA (TLR4) […]",1.06
